Measurements: PubChem BioAssay AID463173 (ICCB-Longwood Screening Facility, Harvard Medical School, 2010)
Out of some 52,000 compounds screened, about 4,300 (8.3%) were called active. Cut-off read from the data, not from the text of the source: active = survival mostly below about 52% (no sharp cut-off); inactive = mostly above about 56%. This is one part of the list.

Test system: DeltatarO mutant
Test: S. aureus survival, RN4220 and DeltatarO strains – OD600, teichoic acid synthesis inhibitors, primary screen (AID 463173)
Conditions: S. aureus RN4220 wild type/DeltatarO growth, OD600, 18 h, stronger effect = lower value, screened at 18.75 µg/mL (by protocol)

| SMILES | survival |
| --- | --- |
| Cc1ccc(CNC(=O)CSc2cc(C)[nH]c(=O)n2)cc1 | inactive: 83% |
| Oc1c(C(c2ccccc2Cl)N2CCCC2)sc2nc(-c3ccco3)nn12 (stereo unspecified) | inactive: 83% |
| CCOc1ccc(N(CC(=O)NCc2ccccc2Cl)S(=O)(=O)c2c(C)[nH]c(=O)[nH]c2=O)cc1 | inactive: 66% |
| COc1ccc(S(=O)(=O)N2CCC(Oc3ccc(-n4cnnn4)cc3)CC2)cc1OC | inactive: 77% |
| CCOc1ccc(C(=O)c2cn(Cc3ccccc3OC)c3ccc(F)cc3c2=O)cc1 | inactive: 94% |
| COc1ccc(-n2c(CC3C(=O)N(C)c4ccc(C)cc43)nc3ccccc3c2=O)cc1 (stereo unspecified) | inactive: 99% |
| CCc1ccc(NC(=O)CN(c2ccc(OC)cc2)S(=O)(=O)c2c(C)[nH]c(=O)[nH]c2=O)cc1 | inactive: 74% |
| Cc1ccc(SCC(=O)Nc2ccccc2)cc1 | inactive: 100% |
| Nc1nc(CN2CCCCC2)cs1 | inactive: 85% |
| COc1cc(Cl)c(C)cc1NC(=O)c1ccc2c(Cl)c3c(nc2c1)CCC3 | inactive: 97% |
| CCOc1cccc(CC(=O)N2CCc3c([nH]c4ccccc34)C2c2ccc(Cl)cc2)c1OCC (stereo unspecified) | inactive: 77% |
| c1ccc(-n2c(SCCN3CCOCC3)nnc2-c2ccncc2)cc1 | inactive: 77% |
| CC1CCN(C(=O)CSc2nc(-c3ccccc3)no2)CC1 | inactive: 115% |
| CC(C)(C)n1nnnc1C(c1ccccn1)N1CCC(Cc2ccccc2)CC1 (stereo unspecified) | inactive: 75% |
| Cc1ccc2[nH]cc(NC(=O)NCCN(C)C)c(=O)c2c1 | inactive: 100% |
| Cc1c(NS(=O)(=O)c2ccccc2)cc(C(C)C)c(O)c1S(=O)(=O)c1ccc(Cl)cc1 | inactive: 103% |
| COc1ccc(C(c2c(O)cc(C)n(Cc3ccco3)c2=O)N2CCCCC2)cc1OC (stereo unspecified) | inactive: 93% |
| Cc1ccc(CN2C(=O)C(O)(c3c[nH]c4ccccc34)c3cc(Cl)ccc32)cc1 (stereo unspecified) | active: -3% |
| COc1cccc(-c2nc(CS(=O)(=O)CC(=O)NCc3ccc(C)cc3)c(C)o2)c1 | inactive: 61% |
| CCOc1cc(-c2nc3c(c(CC)nn3-c3ccccc3)c3cc(OC)c(OC)cc23)ccc1O | inactive: 58% |
| Cc1ccc2c(c1)NC(c1cccnc1)=NC(c1ccc(F)cc1)=N2 | inactive: 78% |
| Cc1ccc(C)c(NC(=O)Cn2c(=O)n(Cc3ccco3)c(=O)c3oc4ccccc4c32)c1 | inactive: 59% |
| COCCNC(=O)c1c(C)oc2nc(C)nc(N3CCOCC3)c12 | inactive: 91% |

| SMILES | survival |
| --- | --- |
| COc1ccc(C2c3c(-c4c(C)cc(C)cc4O)n[nH]c3C(=O)N2Cc2ccco2)cc1 (stereo unspecified) | active: 0% |
| Cc1cccc(-c2cc3nc4c(c(N5CCN(Cc6ccc7c(c6)OCO7)CC5)n3n2)CCCC4)c1 | inactive: 100% |
| CCOC(=O)c1cccc(NC(=O)c2ccc3c(Cl)c4c(nc3c2)CCC4)c1 | active: 41% |
| O=C(NCCCN1CCN(c2ccc(F)cc2)CC1)Nc1ccc(Cl)cc1 | inactive: 72% |
| COc1ccc(C(=O)c2cn(Cc3ccc(F)cc3)c3ccc(C)cc3c2=O)cc1 | active: 24% |
| Cc1csc2nc(-c3cccc(NC(=O)c4ccccc4Cl)c3)cn12 | inactive: 109% |
| Cc1ccc(-c2nc3ccccn3c2Nc2ccc3c(c2)OCO3)cc1 | inactive: 73% |
| Cc1ccc(CNC(=O)CCc2c(C)nn(-c3ccc(N4CCCCC4)nn3)c2C)cc1 | inactive: 93% |
| O=C(NC1CCCCCC1)C1CCN(C(=O)N2CCOc3ccccc32)CC1 | inactive: 76% |
| Cc1cccc(OCC(=O)OCc2cc(=O)n3nc(C4CCCCC4)sc3n2)c1 | inactive: 85% |
| CCOC(=O)C(CC)n1nc(C)n2c(cc3occc32)c1=O (stereo unspecified) | inactive: 116% |
| COc1ccc(C(=O)COC(=O)c2cccc(NC(=O)c3ccc(OC)c(OC)c3)c2)cc1 | inactive: 61% |
| O=C(C1CCCN(S(=O)(=O)Cc2ccccc2)C1)N1CCc2ccccc21 (stereo unspecified) | inactive: 86% |
| CCOc1ccc(CNC(=O)c2cc3ccccn3n2)cc1OC | inactive: 74% |
| Cn1c(=O)c2c(-c3cccc(Br)c3)n(CCO)cc2n(C)c1=O | inactive: 83% |
| CCN1CCN(c2oc(/C=C/c3ccccc3OC)nc2C#N)CC1 | inactive: 78% |
| CN(Cc1ccccc1)C(=O)C1CCN(S(=O)(=O)Cc2ccccc2)CC1 | inactive: 58% |
| O=c1c2cc3c(cc2nc2sc(Nc4ccc(F)c(Cl)c4)nn12)OCO3 | inactive: 158% |
| Cc1nc(C)c(-c2ccc(SCC(=O)Nc3ccc(F)c(F)c3)nn2)s1 | inactive: 102% |
| CC(C)(C)C(=O)NC1CCN(S(=O)(=O)c2ccccc2C(=O)O)CC1 | inactive: 75% |
| COC(=O)C1=C(C)Nc2ncnn2C1c1ccncc1 (stereo unspecified) | inactive: 86% |
| CCOC(=O)/C=C(\C)Nc1cc(-c2ccc(Cl)cc2)[nH]n1 | inactive: 68% |
| Cc1ccc(NC(=O)c2cc(S(=O)(=O)N3CCCC(C)C3)cn2C)c(Br)c1 (stereo unspecified) | inactive: 67% |

| SMILES | survival |
| --- | --- |
| COc1cc(/C=C(\C#N)c2nc3ccccc3n2C)cc(OC)c1OC | active: 47% |
| Nc1cccc(-c2cn3ccsc3n2)c1 | inactive: 81% |
| CNC(=O)/C(C#N)=C/c1cn(CCOc2ccccc2)c2ccccc12 | inactive: 66% |
| O=S(=O)(c1ccccc1)N1CCN(C2CCCCCCC2)CC1 | inactive: 89% |
| COc1ccc(Cn2c(=O)c3cccnc3n(Cc3cccc(OC)c3)c2=O)cc1 | inactive: 67% |
| O=C(NC1CC(=O)N(c2cccc(F)c2)C1)C1CC1 (stereo unspecified) | inactive: 73% |
| Cc1ccc(NC(=O)c2oc3ccccc3c2NC(=O)c2ccccc2C)cc1 | inactive: 79% |
| CSc1nnc(NC(=O)Cc2coc3cc(C)ccc23)s1 | inactive: 71% |
| Cc1ccc(-n2c(=O)c3ccc(C(=O)NCc4ccccc4Cl)cc3n(Cc3ccccc3F)c2=O)cc1 | inactive: 84% |
| CCOC(=O)c1c(-c2ccc(C)cc2)csc1NC(=O)c1nc(SCC)ncc1Cl | inactive: 84% |
| CC1CCN(CCCNC(=O)c2cc(Sc3ccc(F)cc3)nc3ccccc23)CC1 | inactive: 68% |
| CCc1ccc(CN(Cc2cn[nH]c2-c2ccc(OC)cc2)C(=O)Nc2ccc(C)c(F)c2)cc1 | inactive: 74% |
| CC(C)(C)NS(=O)(=O)c1ccc(-c2nnc(SCC(=O)c3ccc(F)cc3)o2)cc1 | inactive: 70% |
| N#Cc1nc(-c2ccc(COc3ccc(Cl)cc3)o2)oc1N1CCN(c2ccccc2)CC1 | inactive: 64% |
| COc1ccccc1N1CCN(C(=O)c2cc3c(=O)n(Cc4ccco4)ccc3nc2C)CC1 | inactive: 80% |
| Cc1ccc(NS(=O)(=O)c2c(C(=O)N3CCC(C)CC3)c(C)n(C)c2C)cc1Cl | inactive: 126% |
| CCOc1ccc(NC(=O)CCn2cnc3onc(-c4ccc(F)cc4)c3c2=O)cc1 | inactive: 54% |
| CN1CCC(OC(=O)c2ccco2)CC1 | inactive: 90% |
| O=S(=O)(c1ccccc1)c1nc(-c2cccs2)oc1SCc1ccccc1F | inactive: 68% |
| CCC(C)(C)C1CCc2c(sc(NC(=O)C3c4ccccc4Oc4ccccc43)c2C(N)=O)C1 (stereo unspecified) | inactive: 123% |
| Cc1ccccc1NC(=O)CCn1cnc2onc(-c3ccc(F)cc3)c2c1=O | inactive: 109% |
| COCCNC(=O)c1cn(Cc2cccc3ccccc23)nn1 | inactive: 89% |
| CCCCC(CC)CNC(=O)C1CCN(S(=O)(=O)c2cccc3nsnc23)CC1 (stereo unspecified) | inactive: 90% |

| SMILES | survival |
| --- | --- |
| Cc1ccc(C)c(N2CCN(CCCNC(=O)Cn3ncc4c5ccccc5n(C)c4c3=O)CC2)c1 | inactive: 75% |
| O=C(COc1ccccc1)Nc1ncn[nH]1 | inactive: 67% |
| Cc1ccc(Nc2c3c(nc4nncn24)CCC3)cc1C | inactive: 55% |
| Cn1c(=O)cc(SCC(=O)N2CCN(c3ccc(F)cc3)CC2)c2ccc(Cl)cc21 | inactive: 93% |
| CC(C)CN1CCc2nc(N3CCN(C)CC3)ncc2C1 | inactive: 83% |
| O=C(CN1C(=O)COc2ccc(S(=O)(=O)N3CCOCC3)cc21)NCc1ccc(F)cc1 | inactive: 86% |
| Cc1ccc(CN2CCSc3ccc(C(=O)N4CCN(c5cc(C)ccc5C)CC4)cc32)cc1 | active: 25% |
| O=C(CSc1nc2c(oc3ccccc32)c(=O)n1-c1ccccc1F)Nc1ccccc1 | inactive: 112% |
| c1ccc(-c2nc(N3CCCCC3)nc3ccccc23)cc1 | inactive: 72% |
| COc1cccc(CNCC(=O)N2C(C)CCCC2C)c1 (stereo unspecified) | inactive: 82% |
| CCOC(=O)c1c(S(=O)(=O)N2CCCC(C(=O)N3CCN(c4cccc(C)c4C)CC3)C2)c(C)n(C)c1C (stereo unspecified) | inactive: 75% |
| O=C(CSc1nnnn1Cc1ccccc1)NCCc1ccccc1 | inactive: 89% |
| CC(=O)Nc1ccc(C(=O)CSc2nc3ccccc3n2CC(=O)N2CCCC2)cc1 | inactive: 92% |
| COC(=O)c1c(SC)nc2ccccc2c1OCc1ccccc1C | inactive: 105% |
| COc1ccc(-c2ccc3c(N)c(C(=O)NCc4ccc(Cl)cc4)sc3n2)cc1 | inactive: 79% |
| Cc1ccc(S(=O)(=O)N2CCNCC2)cc1 | inactive: 87% |
| O=C(CCn1c(=O)c2ccccc2n(Cc2ccc(F)cc2Cl)c1=O)NCc1ccc2c(c1)OCO2 | inactive: 89% |
| CCc1ccc(NC(=O)C2CCN(S(=O)(=O)c3ccc4[nH]c5c(c4c3)CCCCC5)CC2)cc1 | inactive: 67% |
| CCn1cc(C(=O)N2CCN(c3ccccc3F)CC2)c(=O)c2cc(S(=O)(=O)N(C)C3CCCCC3)ccc21 | inactive: 79% |
| CCOC(=O)c1c(C)oc2nc(C)nc(NCc3ccc(Cl)cc3)c12 | inactive: 91% |
| COc1ccc(-c2cc3ccc(O)c(CN4CCOCC4)c3oc2=O)cc1 | inactive: 97% |
| CC(=O)N1CCc2cc(Br)cc(S(=O)(=O)N3CCC(C(=O)N(C)c4cc(C)ccc4C)CC3)c21 | inactive: 94% |
